Results taken from the supplement of paper PMC8728848.
Some of the results follow.

Legend:
Experiment in all cases: glycan array binding signal (z-score within array); higher = stronger binding
Conditions in all cases: glycan notation: IUPAC condensed, linker removed
[1] = target: Gal(b1-4)GlcNAc(b1-3)Gal(b1-4)Glc
Outline: (§1)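 From the Consortium for Functional Glycomics database, 3228 arrays were curated, keeping only those whose protein sequence was available. Binding is given as a within-array Z-score averaged across arrays sharing a protein sequence and across linkers. Negative Z-scores can be read as non-binding.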

[2] = target: Gal(b1-4)GlcNAc(b1-3)Gal(b1-4)GlcNAc
Outline: as §1

[3] = target: Gal(b1-4)GlcNAc(b1-3)Gal(b1-4)GlcNAc(b1-2)Man(a1-3)[Gal(b1-4)GlcNAc(b1-3)Gal(b1-4)GlcNAc(b1-2)Man(a1-6)]Man(b1-4)GlcNAc(b1-4)GlcNAc
Outline: as §1

[4] = target: Gal(b1-4)GlcNAc(b1-3)Gal(b1-4)GlcNAc(b1-2)Man(a1-3)[Gal(b1-4)GlcNAc(b1-3)Gal(b1-4)GlcNAc(b1-2)Man(a1-6)]Man(b1-4)GlcNAc(b1-4)[Fuc(a1-6)]GlcNAc
Outline: as §1

[5] = target: Gal(b1-4)GlcNAc(b1-3)Gal(b1-4)GlcNAc(b1-2)[Gal(b1-4)GlcNAc(b1-3)Gal(b1-4)GlcNAc(b1-6)]Man(a1-6)[Gal(b1-4)GlcNAc(b1-3)Gal(b1-4)GlcNAc(b1-2)Man(a1-3)]Man(b1-4)GlcNAc(b1-4)GlcNAc
Outline: as §1

[6] = target: Gal(b1-4)GlcNAc(b1-3)Gal(b1-4)GlcNAc(b1-2)[Gal(b1-4)GlcNAc(b1-3)Gal(b1-4)GlcNAc(b1-6)]Man(a1-6)[Gal(b1-4)GlcNAc(b1-3)Gal(b1-4)GlcNAc(b1-2)Man(a1-3)]Man(b1-4)GlcNAc(b1-4)[Fuc(a1-6)]GlcNAc
Outline: as §1

[7] = target: Gal(b1-4)GlcNAc(b1-3)Gal(b1-4)GlcNAc(b1-3)Gal(b1-4)GlcNAc
Outline: as §1

[8] = target: Gal(b1-4)GlcNAc(b1-3)Gal(b1-4)GlcNAc(b1-3)Gal(b1-4)GlcNAc(b1-2)Man(a1-3)[Gal(b1-4)GlcNAc(b1-3)Gal(b1-4)GlcNAc(b1-3)Gal(b1-4)GlcNAc(b1-2)Man(a1-6)]Man(b1-4)GlcNAc(b1-4)GlcNAc
Outline: as §1

[9] = target: Gal(b1-4)GlcNAc(b1-3)Gal(b1-4)GlcNAc(b1-3)Gal(b1-4)GlcNAc(b1-2)Man(a1-3)[Gal(b1-4)GlcNAc(b1-3)Gal(b1-4)GlcNAc(b1-3)Gal(b1-4)GlcNAc(b1-2)Man(a1-6)]Man(b1-4)GlcNAc(b1-4)[Fuc(a1-6)]GlcNAc
Outline: as §1

[10] = target: Gal(b1-4)GlcNAc(b1-3)Gal(b1-4)GlcNAc(b1-3)Gal(b1-4)GlcNAc(b1-2)[Gal(b1-4)GlcNAc(b1-3)Gal(b1-4)GlcNAc(b1-3)Gal(b1-4)GlcNAc(b1-6)]Man(a1-6)[Gal(b1-4)GlcNAc(b1-3)Gal(b1-4)GlcNAc(b1-3)Gal(b1-4)GlcNAc(b1-2)Man(a1-3)]Man(b1-4)GlcNAc(b1-4)[Fuc(a1-6)]GlcNAc
Outline: as §1

[11] = target: Gal(b1-4)GlcNAc(b1-3)Gal(b1-4)GlcNAc(b1-3)Gal(b1-4)GlcNAc(b1-3)Gal(b1-4)GlcNAc(b1-2)Man(a1-3)[Gal(b1-4)GlcNAc(b1-3)Gal(b1-4)GlcNAc(b1-3)Gal(b1-4)GlcNAc(b1-3)Gal(b1-4)GlcNAc(b1-2)Man(a1-6)]Man(b1-4)GlcNAc(b1-4)GlcNAc
Outline: as §1

[12] = target: Gal(b1-4)GlcNAc(b1-3)Gal(b1-4)GlcNAc(b1-3)Gal(b1-4)GlcNAc(b1-3)Gal(b1-4)GlcNAc(b1-2)Man(a1-3)[Gal(b1-4)GlcNAc(b1-3)Gal(b1-4)GlcNAc(b1-3)Gal(b1-4)GlcNAc(b1-3)Gal(b1-4)GlcNAc(b1-2)Man(a1-6)]Man(b1-4)GlcNAc(b1-4)[Fuc(a1-6)]GlcNAc
Outline: as §1

[13] = target: Gal(b1-4)GlcNAc(b1-3)Gal(b1-4)GlcNAc(b1-3)Gal(b1-4)GlcNAc(b1-3)Gal(b1-4)GlcNAc(b1-2)[Gal(b1-4)GlcNAc(b1-3)Gal(b1-4)GlcNAc(b1-3)Gal(b1-4)GlcNAc(b1-3)Gal(b1-4)GlcNAc(b1-6)]Man(a1-6)[Gal(b1-4)GlcNAc(b1-3)Gal(b1-4)GlcNAc(b1-3)Gal(b1-4)GlcNAc(b1-3)Gal(b1-4)GlcNAc(b1-2)Man(a1-3)]Man(b1-4)GlcNAc(b1-4)[Fuc(a1-6)]GlcNAc
Outline: as §1

[14] = target: Gal(b1-4)GlcNAc(b1-3)Gal(b1-4)GlcNAc(b1-3)Gal(b1-4)GlcNAc(b1-3)Gal(b1-4)GlcNAc(b1-3)Gal(b1-4)GlcNAc(b1-2)Man(a1-3)[Gal(b1-4)GlcNAc(b1-3)Gal(b1-4)GlcNAc(b1-3)Gal(b1-4)GlcNAc(b1-3)Gal(b1-4)GlcNAc(b1-3)Gal(b1-4)GlcNAc(b1-2)Man(a1-6)]Man(b1-4)GlcNAc(b1-4)GlcNAc
Outline: as §1

[15] = target: Gal(b1-4)GlcNAc(b1-3)Gal(b1-4)GlcNAc(b1-3)Gal(b1-4)GlcNAc(b1-3)Gal(b1-4)GlcNAc(b1-3)Gal(b1-4)GlcNAc(b1-2)Man(a1-3)[Gal(b1-4)GlcNAc(b1-3)Gal(b1-4)GlcNAc(b1-3)Gal(b1-4)GlcNAc(b1-3)Gal(b1-4)GlcNAc(b1-3)Gal(b1-4)GlcNAc(b1-2)Man(a1-6)]Man(b1-4)GlcNAc(b1-4)[Fuc(a1-6)]GlcNAc
Outline: as §1

[16] = target: Gal(b1-4)GlcNAc(b1-3)Gal(b1-4)GlcNAc(b1-3)Gal(b1-4)GlcNAc(b1-3)Gal(b1-4)GlcNAc(b1-3)Gal(b1-4)GlcNAc(b1-2)[Gal(b1-4)GlcNAc(b1-3)Gal(b1-4)GlcNAc(b1-3)Gal(b1-4)GlcNAc(b1-3)Gal(b1-4)GlcNAc(b1-3)Gal(b1-4)GlcNAc(b1-6)]Man(a1-6)[Gal(b1-4)GlcNAc(b1-3)Gal(b1-4)GlcNAc(b1-3)Gal(b1-4)GlcNAc(b1-3)Gal(b1-4)GlcNAc(b1-3)Gal(b1-4)GlcNAc(b1-2)Man(a1-3)]Man(b1-4)GlcNAc(b1-4)[Fuc(a1-6)]GlcNAc
Outline: as §1

[17] = target: Gal(b1-4)GlcNAc(b1-3)Gal(b1-4)GlcNAc(b1-3)Gal(b1-4)GlcNAc(b1-3)Gal(b1-4)GlcNAc(b1-3)Gal(b1-4)GlcNAc(b1-3)Gal(b1-4)GlcNAc(b1-2)Man(a1-3)[Gal(b1-4)GlcNAc(b1-3)Gal(b1-4)GlcNAc(b1-3)Gal(b1-4)GlcNAc(b1-3)Gal(b1-4)GlcNAc(b1-3)Gal(b1-4)GlcNAc(b1-3)Gal(b1-4)GlcNAc(b1-2)Man(a1-6)]Man(b1-4)GlcNAc(b1-4)GlcNAc
Outline: as §1

[18] = target: Gal(b1-4)GlcNAc(b1-3)Gal(b1-4)GlcNAc(b1-3)GalNAc
Outline: as §1

[19] = target: Gal(b1-4)GlcNAc(b1-3)Gal(b1-4)GlcNAc(b1-3)[Gal(b1-4)GlcNAc(b1-3)Gal(b1-4)GlcNAc(b1-6)]GalNAc
Outline: as §1

B1: PX14343B-bfa-546-20-546 (Bacteroides fragilis) (protein)
chain: CDLERYPLTDLSEETFWNSESNAELALTSLYRGSLTDGVEYNPSDWWSYHGMIMMEHLSDNAFDRRGENNPFFKISSGNLTADNAFIKRYWETSYKRIGYCNRFLVGIQNSSESEKKTRMIAEARFLRATQYFYLASYFKNVPLVENVLTGEEANNVTKTSQADILKWCVTEFTAAAADLPRFSAIPAGEAGRACKQAALAFLGRTCMLQKDWKSGAKAFHDIMELGDNAINANYQELFYPSTGTSNKENIFYIQYLENYLGTGLPQHALSAKDGGWSLVNPAADLYESYEFKDGTPFSYDDPRYDPSNLGKDRDPRLDYTIYYNGAIFMGTEYKMSPDYSAAKKEKLDYTSEASRTGFMMRKYFEESTPINDVQSANGLTPVIRYAEVLLGYLECLVEDNQTITQGILDETINAVRGRASVNMPPVTEVTPAKLREIVRHERRIELAMEGIRYWDIMRWGIAHEVLSQKIWGAPYPGSTQYATTTKEVDPTGNYRWYVGKRAFRNPTDYTWPIPQSEQNINPNLRD
With B1 as the binder, how does the “glycan array binding signal (z-score)” value [1] read?
The value was -0.123.

What about the “glycan array binding signal (z-score)” value [2] of the same binder?
Its value is -0.132.

And the “glycan array binding signal (z-score)” value [3]?
The value was -0.109.

What about the “glycan array binding signal (z-score)” value [4] of the same binder?
The value was -0.108.

And the “glycan array binding signal (z-score)” value [5]?
The value was -0.122.

And the “glycan array binding signal (z-score)” value [6]?
Its value is -0.119.

And the “glycan array binding signal (z-score)” value [7]?
The value was -0.113.

What about the “glycan array binding signal (z-score)” value [8] of the same binder?
The value was -0.109.

What about the “glycan array binding signal (z-score)” value [9] of the same binder?
Its value is -0.133.

And the “glycan array binding signal (z-score)” value [10]?
The value was -0.107.

And the “glycan array binding signal (z-score)” value [11]?
Its value is -0.057.

What about the “glycan array binding signal (z-score)” value [12] of the same binder?
Its value is -0.106.

And the “glycan array binding signal (z-score)” value [13]?
The value was -0.088.

And the “glycan array binding signal (z-score)” value [14]?
Its value is -0.105.

What about the “glycan array binding signal (z-score)” value [15] of the same binder?
Its value is -0.105.

And the “glycan array binding signal (z-score)” value [16]?
The value was -0.1.

What about the “glycan array binding signal (z-score)” value [17] of the same binder?
Its value is -0.101.

And the “glycan array binding signal (z-score)” value [18]?
Its value is -0.124.

And the “glycan array binding signal (z-score)” value [19]?
Its value is -0.098.
